Hit rate of the full screen: of about 360,000 compounds, about 520 (0.14%) were called active. The shares of active, inactive and inconclusive entries below differ from those in the screen. Calls come from the whole dose curve; as a rule, active = well fitted inhibition curve with a large enough effect; inconclusive = small, poorly fitted or top-dose-only effect; inactive = no such curve, though single readings can be large or run the other way. Potencies beside an inconclusive call are fits to weak or partial responses and may not hold up.
molecular target: Rap guanine nucleotide exchange factor 3 (Homo sapiens) (UniProt O95398); assay: qHTS for Antagonist of cAMP-regulated guanine nucleotide exchange factor 3 (EPAC1): primary screen; settings: EPAC1 GEF assay, Rap1b-BODIPY-GDP exchange fluorescence; series mostly up to 115 µM; note: nearly all actives have a fitted effect of over 50% in size
Potency is the fitted concentration of half-maximal effect; tags give direction and shape of the fitted curve.

Chain of UniProt O95398 (O95398 whole entry, looked up): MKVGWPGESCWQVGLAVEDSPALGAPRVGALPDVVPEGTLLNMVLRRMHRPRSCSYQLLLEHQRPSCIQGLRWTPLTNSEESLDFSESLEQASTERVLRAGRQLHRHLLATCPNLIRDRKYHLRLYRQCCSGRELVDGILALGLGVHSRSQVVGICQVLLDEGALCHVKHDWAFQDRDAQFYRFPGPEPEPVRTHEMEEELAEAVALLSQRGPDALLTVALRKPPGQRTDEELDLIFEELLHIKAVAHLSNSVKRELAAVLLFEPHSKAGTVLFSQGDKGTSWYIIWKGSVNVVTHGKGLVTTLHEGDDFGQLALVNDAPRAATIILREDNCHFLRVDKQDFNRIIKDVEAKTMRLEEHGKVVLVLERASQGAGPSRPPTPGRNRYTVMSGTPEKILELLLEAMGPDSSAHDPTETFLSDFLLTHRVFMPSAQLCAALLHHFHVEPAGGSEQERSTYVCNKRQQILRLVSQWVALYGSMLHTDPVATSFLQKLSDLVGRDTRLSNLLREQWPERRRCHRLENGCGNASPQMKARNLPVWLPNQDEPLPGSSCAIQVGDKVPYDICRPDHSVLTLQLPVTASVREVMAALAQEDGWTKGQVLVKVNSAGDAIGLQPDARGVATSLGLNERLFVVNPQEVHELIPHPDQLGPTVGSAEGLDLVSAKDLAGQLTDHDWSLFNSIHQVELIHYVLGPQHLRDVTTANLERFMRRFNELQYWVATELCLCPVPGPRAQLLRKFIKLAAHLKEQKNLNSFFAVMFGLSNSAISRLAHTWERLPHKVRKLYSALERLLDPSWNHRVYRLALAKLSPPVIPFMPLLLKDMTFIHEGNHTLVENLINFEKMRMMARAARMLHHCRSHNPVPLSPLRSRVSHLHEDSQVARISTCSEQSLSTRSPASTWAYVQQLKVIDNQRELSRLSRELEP

Potency, inconclusive:
O=C1C(Cl)=C(N2CCCCC2)C(=O)C(Cl)=C1c1cnc(N2CCCCC2)s1 70.8 µM [inhibitor, partial curve], CCOC(=O)C1CCCN(C(=O)c2ccc3nc(-c4cccc(OC)c4)oc3c2)C1 (stereo not drawn) 39.8 µM [inhibitor, single point], CC(=O)Nc1cccc(-c2cc(NC=O)c3ncc(-c4cccc(C(C)=O)c4)n3c2)c1 50.1 µM [inhibitor, partial curve], CCOP(=O)(OCC)C(Nc1cccc(C(F)(F)F)c1)c1ccc(F)cc1 (stereo not drawn) 31.6 µM [inhibitor, single point], CCc1nnc(NC(=O)COC(=O)c2cc(OC)cc(OC)c2)s1 39.8 µM [inhibitor, single point], COc1cc(/C=C2\SC(=O)N(c3cccc(Cl)c3)C2=O)cc([N+](=O)[O-])c1O 31.6 µM [inhibitor, partial curve, poor fit], CN(C(=O)C12CC3CC(CC(C3)C1)C2)C1(C)CCS(=O)(=O)C1 (stereo not drawn) 39.8 µM [inhibitor, single point], COc1ccc(N(CC(=O)NCCSc2ccccc2)S(=O)(=O)c2ccccc2)cc1OC 3.16 µM [inhibitor, full curve, poor fit], CC1=NCCN1S(=O)(=O)c1cc(Cl)ccc1Cl 39.8 µM [inhibitor, single point], Oc1ccc(-c2csc(Nc3cccc4ccccc34)n2)cc1O 56.2 µM [inhibitor, partial curve], COc1ccc(/C=C2\C(=O)NC(=S)N2C(=O)c2ccc(C)cc2)cc1 25.1 µM [inhibitor, full curve], O=C(CCCc1ccccc1)Nc1ccnn1C1CCN(Cc2ccc(CO)o2)CC1 39.8 µM [inhibitor, single point], COc1ccc(-n2c(Cc3cccn3C)nnc2SCC(=O)Nc2ccccc2OC)cc1 7.08 µM [inhibitor, full curve, poor fit], O=C(O)c1cnccn1 100 µM [inhibitor, single point], COc1ccc(-c2noc(CN(C(=O)c3c(-c4ccccc4Cl)noc3C)C(C)C)n2)cc1 12.6 µM [inhibitor, partial curve], Cc1cc2c3c(ccc(C)c3n1)N=CN2c1ccccc1 15.8 µM [inhibitor, partial curve], C=CCOc1ccc(C(c2c(C(=O)O)[nH]c3ccccc23)c2c(C(=O)O)[nH]c3ccccc23)cc1 79.4 µM [inhibitor, partial curve], O=C(COC(=O)c1n[nH]c2ccccc12)c1cccc(Br)c1 100 µM [inhibitor, single point], CCc1nnc(NS(=O)(=O)c2ccc(NC(=O)/C=C/c3ccc(OC)cc3OC)cc2)s1 35.5 µM [inhibitor, full curve], CN(C)C(CNS(=O)(=O)c1ccc(Cl)cc1)c1cccnc1 (stereo not drawn) 39.8 µM [inhibitor, single point], Cc1nn(-c2ccc(N3CCCCC3)nn2)c(C)c1CCC(=O)Nc1ccc(F)c(F)c1 89.1 µM [inhibitor, partial curve, poor fit], O=C(NCC1CC1)c1ccc(Nc2nc3ccc(Br)cc3[nH]2)cc1 100 µM [inhibitor, single point], c1cncc(-c2nc(N3CCCCCC3)c3ccccc3n2)c1 89.1 µM [inhibitor, single point], Cc1ccccc1C(=O)Nc1cccc(-c2cn3ccccc3n2)c1 89.1 µM [inhibitor, partial curve], CSc1ccc(C2C(C#N)=C(N)Oc3c2ccc(=O)c2c(C)oc(C)c32)cc1 (stereo not drawn) 50.1 µM [inhibitor, partial curve], Cc1c(CN(C)Cc2cn(C)nc2-c2ccccc2F)[nH]c2ccccc12 89.1 µM [inhibitor, single point], COc1ccc(CNC(=O)c2ccc(CS(=O)(=O)c3ccc(Br)cc3)o2)cc1 79.4 µM [inhibitor, partial curve], COc1ccc(/C=C/C(=O)c2cc3cccc(OC)c3oc2=O)cc1 89.1 µM [inhibitor, single point], Cc1nc(-c2ccc(C(=O)Nc3cccc(Br)c3)cc2)cs1 44.7 µM [inhibitor, partial curve]

Potency, inactive:
COc1cccc(C(C(=O)NCc2ccccc2)N2CCN(c3ccccc3F)CC2)c1OC (stereo not drawn), O=C(NCc1cccs1)c1ccncc1, NC(=O)c1ccsc1NC(=O)COC(=O)c1ccccn1, O=C(N/N=C/c1ccc([N+](=O)[O-])s1)c1ccncc1, CCN1C=C(Cc2ccccc2C)C2=C(C1)C(c1ccccc1C)C(C#N)=C(N)O2 (stereo not drawn), CNc1sc(C(=O)c2cccs2)c(N)c1-c1nc2ccccc2s1, CCCCN(C(=O)c1ccccc1OCc1ccc(F)cc1)c1c(N)n(CC(C)C)c(=O)[nH]c1=O, Fc1cccc(Cl)c1Cn1nnc(-c2ccc(N3CCOCC3)cc2)n1, CC1CCCCC12NC(=S)N(c1ccccc1)N2 (stereo not drawn), O=C(COC(=O)/C=C/c1ccc(OC(F)F)cc1)Nc1cccc(S(=O)(=O)N2CCCC2)c1, CCOC(=O)C1(CCCc2ccccc2)CCN(C(=O)[C@@H]2C[C@@H](C)NC(=S)N2)CC1, CCOC(=O)N1CC=C2C(C#N)=C(N)C(C#N)(C#N)[C@H](c3cccs3)C2C1 (stereo partly drawn), CCCCCCc1cc2cc(S(=O)(=O)c3ccc(F)cc3)c(=O)oc2cc1O, CCOC(=O)C(Oc1ccc2c(-c3ccccc3)cc(=O)oc2c1C)c1ccccc1 (stereo not drawn)
